Measurements from PubChem BioAssay (NCI).
Several values for one entry are separate records, joined by “and”; a condition that tells them apart may be missing. Identical values can stand only once.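 Exposure lasted 48 hours, with cells grown in 96-well plates and compounds tested at five concentrations. At the GI50, growth is halved. At the TGI there is no net growth.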

Test system: NCI-H322M lung
Experiment: inhibition of tumour cell growth, NCI panel, 48 h

Cc1ccccc1-n1c(=O)c2ncn(C3CCCO3)c2n(-c2ccccc2C)c1=S (centres undefined)
TGI: > 100 µM

Cc1ccc(/C=C/C(=O)C(C)(C)CN2CCCCC2)cc1
TGI: 17.8 µM

CN1CCN(C(=O)c2cc(-c3ccc4ncnc(N5CCc6cc(F)c(Cl)cc65)c4c3)cnc2N)CC1
GI50: 0.269 µM | TGI: 3.04 µM

CC(=O)Oc1cc2c(cc1OC(C)=O)OCC(c1ccccc1)C2 (centres undefined)
TGI: 64.5 µM

CC(=O)Nc1ccc(C(O)/C(=N/N)c2nc3ccc(Cl)cc3[nH]c2=O)cc1 (centres undefined)
TGI: > 100 µM

CCC(C=O)P1(=O)OC(C)(C)CN1C(C)(C)C (centres undefined)
TGI: > 100 µM

COc1ccc(-c2[nH]c3ccccc3c2-c2ccc(OC)cc2)cc1
GI50: 13.2 µM | TGI: 40.3 µM

N#CC(C#N)=C1NC(=O)CC(=O)N1
TGI: > 100 µM

O=C1CCCN1C(=O)CS(=O)(=O)c1ccccc1
TGI: > 100 µM

Nc1nc(OCc2ccccc2)c2[nH]cnc2n1
GI50: 24.3 µM and 12 µM | TGI: 95.7 µM and 400 µM and 299 µM

C#C[C@]1(O)CCCC2=CC(=O)CC[C@@]21C
TGI: > 100 µM

O=C(O)c1ccc(C(=O)c2ccccc2)c(C(=O)O)c1
TGI: > 100 µM

N#CC(=C1C=CC(=NO)C=C1)c1ccc(Cl)cc1
TGI: > 100 µM

NC(N)=NCCCC(NC(=O)c1cccc2c(=O)c3ccccc3[nH]c12)C(=O)O (centres undefined)
TGI: > 100 µM

O=C1OCC2OC(=O)c3cc(O)c(O)c(O)c3-c3c(O)c(O)c(O)c4c3C(=O)OC(C2OC(=O)c2cc(O)c(O)c(O)c2-c2c1cc(O)c(O)c2O)C1OC(=O)c2c-4c(O)c(O)c(O)c2[C@@H]1C(O)C(O)C(O)C(O)CO (some centres undefined)
TGI: 32.3 µM

COC1C=COC2(C)Oc3c(C)c(O)c4c(c3C2=O)/C(=N/C2CCC(O)OC2C)C=C(NC(=O)/C(C)=C\C(=O)C2CC2C(O)C(C)C(O)C(C)C(OC(C)=O)C1C)C4=O (centres undefined)
TGI: 10.7 µM

O=C(O)c1cc2c(ncc3c(=O)n(-c4ccccc4)[nH]c32)s1
TGI: > 100 µM

O=C(NC1CCCCC1NC(c1ccccc1)(c1ccccc1)c1ccccc1)C(=O)NC1CCCCC1NC(c1ccccc1)(c1ccccc1)c1ccccc1 (centres undefined)
TGI: > 100 µM

COc1nc(=O)n(COC(CO)CN2C(=O)c3ccccc3C2=O)cc1Cc1cccc(OCc2ccccc2)c1 (centres undefined)
TGI: 77.7 µM

COc1cc2c(cc1OC)C1C=NC(C2)c2cc(OC)c(OC)cc21 (centres undefined)
TGI: > 100 µM

COC(=O)[C@@H]1CC(C(C[N+](=O)[O-])c2ccc(O[Si](C)(C)C(C)(C)C)cc2)C(=O)N1C(=O)OC(C)(C)C (some centres undefined)
TGI: > 100 µM

O=C1OC(Cc2ccccc2)(N2CCCC2=O)C1c1ccccc1 (centres undefined)
TGI: > 100 µM

CCCNC(=O)C(C)C1CCC2(C)C=CC(=O)C(C)=C2C1O (centres undefined)
TGI: > 100 µM

CSc1nc2c(c(=O)[nH]1)N=C(c1ccc([N+](=O)[O-])cc1)CC(c1ccccc1)N2 (centres undefined)
TGI: > 100 µM

CCN(CC)c1ccc2cc(C(=O)Nc3ccc4[nH]c(C(=O)N5C[C@@H](CCl)c6c5cc(OC(=O)Nc5ccccc5)c5[nH]cc(C)c65)cc4c3)oc2c1
TGI: > 1000 µM

O=[N+]([O-])c1cccc2nnccc12
TGI: > 100 µM

O=C1C=CC2(C=C1)O[C@H](Cc1ccccc1)[C@@H](Cc1ccccc1)O2
TGI: 26.1 µM

CO/C(=N\N=C\c1ccc(OC)c(OC)c1)c1ccncc1
TGI: > 10 µM

O=c1[nH]cc(COCCCO)c(=O)[nH]1
TGI: > 100 µM

OCC1OC(n2cnc3c(N/N=C\c4ccccn4)ncnc32)C(O)C1O (centres undefined)
GI50: 0.135 µM | TGI: 4.81 µM

COc1cc2c(c(OC)c1OC)-c1ccc(SC)c(=O)cc1C(NC(=O)c1ccccc1)CC2 (centres undefined)
TGI: 2.3 µM

CC1(C)OC(=O)C(C#N)=C1/C=C/c1coc2ccc(Cl)cc2c1=O
TGI: > 100 µM

O=C1C(=C([O-])c2ccccc2)C(=O)c2ccccc21.O=C1C(=C([O-])c2ccccc2)C(=O)c2ccccc21.[Fe+2]
GI50: 77.4 µM | TGI: > 100 µM

COC(=O)[C@H](CCSC)NC(=O)N[C@H](C)c1ccccc1
TGI: > 100 µM

NNC(=O)CS(=O)(=O)Nc1ncccn1
TGI: > 100 µM

COc1ccc2cc1Oc1ccc(cc1)C[C@H]1c3c(cc4c(c3Oc3cc5c(cc3OC)CCN(C)[C@@H]5C2)OCO4)CCN1C
GI50: 5.72 µM | TGI: 16.3 µM

CCOC(=O)C1=NOC2(C=C(Br)C(=O)C(Br)=C2)C1
TGI: 30.1 µM

Cn1c(=O)c2[nH]c(CCNC(=O)c3ccccc3)nc2n(C)c1=O
TGI: > 100 µM
